# By IC50 is meant the dose at which the fit gives 50% viability; a fit beyond the top or the lowest dose is shown as a bound at that dose. For AUC the same curve is integrated over the 256-fold range of doses and scaled to a fraction; the more sensitive the line, the further below 1. For some assays here: Any top dose called inferred was derived from the fitted curves, not read from the paper.
# Experiments:
# Experiment in all cases: Viability of human cancer cell lines after 72 h of drug (GDSC screen)
# UNC1215 = compound: O=C(c1ccc(C(=O)N2CCC(N3CCCC3)CC2)c(Nc2ccccc2)c1)N1CCC(N2CCCC2)CC1 [UNC1215]; settings: top dose 1 µM; top dose inferred
# Experimental: (§1)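 Human cancer cell lines in 384-well plates, medium with 10% serum, drug for 72 h over a 256-fold dose range (nine 2-fold or five 4-fold steps up to the top dose). Adherent lines were fixed and stained with the nucleic acid dye Syto60, suspension lines read with resazurin; signal relative to control wells, capped at 0 and 100%. One two-parameter sigmoid per drug and line, fitted in a mixed model over all curves with the slope shared within a line.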
# TG101348 = compound: Cc1cnc(Nc2ccc(OCCN3CCCC3)cc2)nc1Nc1cccc(S(=O)(=O)NC(C)(C)C)c1 [TG101348]; settings: top dose 10.24 µM
# Experimental: as §1
# OSI-027 = compound: COc1cccc2cc(-c3nc([C@H]4CC[C@H](C(=O)O)CC4)n4ncnc(N)c34)[nH]c12 [OSI-027]; settings: top dose 20 µM
# Experimental: as §1
# Dimethyloxalylglycine = compound: COC(=O)CNC(=O)C(=O)OC [Dimethyloxalylglycine]; settings: top dose 4000 µM; top dose inferred
# Experimental: as §1
# Vismodegib = compound: CS(=O)(=O)c1ccc(C(=O)Nc2ccc(Cl)c(-c3ccccn3)c2)c(Cl)c1 [Vismodegib]; settings: top dose 10 µM; top dose inferred
# Experimental: as §1
# 17-AAG = compound: C=CCNC1=C2C[C@@H](C)C[C@H](OC)[C@H](O)[C@@H](C)/C=C(\C)[C@H](OC(N)=O)[C@@H](OC)/C=C\C=C(/C)C(=O)NC(=CC1=O)C2=O [17-AAG]; settings: top dose 1 µM
# Experimental: as §1
# BIX02189 = compound: CN(C)Cc1cccc(N=C(c2ccccc2)c2c(O)[nH]c3cc(C(=O)N(C)C)ccc23)c1 [BIX02189]; settings: top dose 20 µM; top dose inferred
# Experimental: as §1
# CCT018159 = compound: CCc1cc(-c2n[nH]c(C)c2-c2ccc3c(c2)OCCO3)c(O)cc1O [CCT018159]; settings: top dose 10 µM; top dose inferred
# Experimental: as §1
# VX-11e = compound: Cc1cnc(Nc2ccc(F)cc2Cl)nc1-c1c[nH]c(C(=O)N[C@H](CO)c2cccc(Cl)c2)c1 [VX-11e]; settings: top dose 5.12 µM; top dose inferred
# Experimental: as §1
# BMX-IN-1 (QL-XII-61) = compound: C=CC(=O)Nc1cc(-n2c(=O)ccc3cnc4ccc(-c5ccc(NS(C)(=O)=O)cc5)cc4c32)ccc1C [BMX-IN-1 (QL-XII-61)]; settings: top dose 10 µM; top dose inferred
# Experimental: as §1
Cell Line,AUC (UNC1215),IC50 (UNC1215),AUC (TG101348),IC50 (TG101348),AUC (OSI-027),IC50 (OSI-027),AUC (Dimethyloxalylglycine),AUC (Vismodegib),IC50 (Vismodegib),AUC (17-AAG),IC50 (17-AAG),AUC (BIX02189),IC50 (BIX02189),AUC (CCT018159),IC50 (CCT018159),AUC (VX-11e),IC50 (VX-11e),AUC (BMX-IN-1 (QL-XII-61)),IC50 (BMX-IN-1 (QL-XII-61)),IC50 (Dimethyloxalylglycine)
"22RV1 (prostate, adherent)",0.974,> 1 µM,0.859,> 10.2 µM,0.367,0.488 µM,0.529,0.963,> 10 µM,0.899,> 1 µM,0.96,> 20 µM,0.922,> 10 µM,0.725,1.65 µM,0.967,> 10 µM,–
"A427 (non-small cell lung carcinoma, adherent)",0.985,> 1 µM,0.924,> 10.2 µM,0.904,> 20 µM,0.658,0.97,> 10 µM,0.767,0.377 µM,0.939,> 20 µM,0.855,8.09 µM,0.967,> 5.12 µM,0.985,> 10 µM,691 µM
"A2780 (ovary, semi-adherent)",0.973,> 1 µM,0.555,0.911 µM,0.191,0.144 µM,0.79,0.985,> 10 µM,0.626,0.141 µM,0.872,> 20 µM,0.76,3.64 µM,0.549,0.437 µM,0.687,2.14 µM,1850 µM
"AsPC-1 (pancreas, adherent)",0.968,> 1 µM,0.897,> 10.2 µM,0.832,> 20 µM,0.764,0.868,> 10 µM,0.649,0.217 µM,0.851,> 20 µM,0.942,> 10 µM,0.787,4.29 µM,0.969,> 10 µM,2610 µM
"BT-20 (breast, adherent)",0.982,> 1 µM,0.916,> 10.2 µM,0.669,4.17 µM,0.662,0.934,> 10 µM,0.757,0.42 µM,0.983,> 20 µM,0.894,> 10 µM,0.984,> 5.12 µM,0.982,> 10 µM,790 µM
"C-4-I (cervix, adherent)",–,–,0.976,> 10.2 µM,0.901,> 20 µM,0.782,0.981,> 10 µM,0.493,0.0599 µM,0.986,> 20 µM,0.893,> 10 µM,0.985,> 5.12 µM,0.985,> 10 µM,1820 µM
"CHP-212 (neuroblastoma, adherent)",0.987,> 1 µM,0.809,4.84 µM,0.867,15.7 µM,0.468,0.972,> 10 µM,0.447,0.0452 µM,0.984,> 20 µM,0.893,> 10 µM,0.981,> 5.12 µM,0.973,> 10 µM,205 µM
"Capan-2 (pancreas, adherent)",0.983,> 1 µM,0.794,5.86 µM,0.83,16.3 µM,0.567,0.985,> 10 µM,0.67,0.207 µM,0.955,> 20 µM,0.975,> 10 µM,0.941,> 5.12 µM,0.915,> 10 µM,397 µM
"D-247MG (glioma, adherent)",0.976,> 1 µM,0.646,1.89 µM,0.663,4.22 µM,0.757,0.961,> 10 µM,0.586,0.117 µM,0.889,> 20 µM,0.967,> 10 µM,0.469,0.256 µM,0.91,> 10 µM,1860 µM
"D-336MG (glioma, adherent)",0.947,> 1 µM,0.743,3.96 µM,0.494,1.2 µM,0.816,0.979,> 10 µM,0.451,0.0442 µM,0.946,> 20 µM,0.89,> 10 µM,0.973,> 5.12 µM,0.951,> 10 µM,3050 µM
"EKVX (lung adenocarcinoma, adherent)",0.903,> 1 µM,0.884,> 10.2 µM,0.804,> 20 µM,0.594,0.962,> 10 µM,0.821,> 1 µM,0.97,> 20 µM,0.912,> 10 µM,0.933,> 5.12 µM,0.965,> 10 µM,607 µM
"EVSA-T (breast, adherent)",0.991,> 1 µM,0.897,9.54 µM,0.7,4.13 µM,0.847,0.991,> 10 µM,0.436,0.0429 µM,0.96,> 20 µM,0.916,> 10 µM,0.955,> 5.12 µM,0.882,7.98 µM,2330 µM
"HCC38 (breast, adherent)",0.985,> 1 µM,0.701,2.48 µM,0.494,1.2 µM,0.696,0.978,> 10 µM,0.733,0.308 µM,0.943,> 20 µM,0.944,> 10 µM,0.98,> 5.12 µM,0.964,> 10 µM,932 µM
"HCC1569 (breast, adherent)",0.978,> 1 µM,0.755,4.54 µM,0.426,0.732 µM,0.781,0.953,> 10 µM,0.822,0.863 µM,0.96,> 20 µM,0.859,> 10 µM,0.976,> 5.12 µM,0.955,> 10 µM,2270 µM
"HCC1937 (breast, adherent)",0.983,> 1 µM,0.885,> 10.2 µM,0.759,8 µM,0.672,0.974,> 10 µM,0.674,0.207 µM,0.948,> 20 µM,0.928,> 10 µM,0.985,> 5.12 µM,0.932,> 10 µM,815 µM
"HCC1954 (breast, adherent)",0.982,> 1 µM,0.944,> 10.2 µM,0.457,0.938 µM,0.605,0.973,> 10 µM,0.867,> 1 µM,0.985,> 20 µM,0.876,> 10 µM,0.985,> 5.12 µM,0.977,> 10 µM,509 µM
"HSC-2 (head and neck, adherent)",0.967,> 1 µM,0.902,> 10.2 µM,0.871,16.4 µM,0.617,0.987,> 10 µM,0.708,0.229 µM,0.978,> 20 µM,–,–,0.978,> 5.12 µM,0.983,> 10 µM,509 µM
"HuH-7 (liver, adherent)",0.986,> 1 µM,–,–,0.473,1.06 µM,0.308,0.982,> 10 µM,0.939,> 1 µM,0.975,> 20 µM,0.946,> 10 µM,0.973,> 5.12 µM,0.826,6.04 µM,72.4 µM
"LB647-SCLC (small cell lung carcinoma, semi-adherent)",0.983,> 1 µM,–,–,–,–,0.756,0.982,> 10 µM,0.967,> 1 µM,–,–,0.969,> 10 µM,–,–,0.662,1.87 µM,1510 µM
"LoVo (large intestine, adherent)",0.986,> 1 µM,0.969,> 10.2 µM,0.884,> 20 µM,0.702,0.973,> 10 µM,0.935,> 1 µM,0.987,> 20 µM,–,–,0.898,> 5.12 µM,0.986,> 10 µM,935 µM
"MMAC-SF (melanoma, adherent)",0.986,> 1 µM,0.904,> 10.2 µM,0.687,4.29 µM,0.684,0.96,> 10 µM,0.55,0.0863 µM,0.987,> 20 µM,–,–,0.987,> 5.12 µM,0.829,6.62 µM,837 µM
"SK-MG-1 (glioma, adherent)",0.986,> 1 µM,0.872,9.93 µM,0.987,> 20 µM,–,0.987,> 10 µM,0.596,0.115 µM,0.974,> 20 µM,0.945,> 10 µM,0.98,> 5.12 µM,0.955,> 10 µM,–
"SNU-81 (large intestine, adherent)",0.979,> 1 µM,0.915,> 10.2 µM,0.329,0.352 µM,–,0.982,> 10 µM,0.873,> 1 µM,0.98,> 20 µM,0.931,> 10 µM,0.923,> 5.12 µM,0.88,> 10 µM,–
"SNU-407 (large intestine, adherent)",0.981,> 1 µM,0.755,4.02 µM,0.524,1.47 µM,–,0.983,> 10 µM,0.899,> 1 µM,0.879,> 20 µM,0.903,> 10 µM,0.742,1.8 µM,0.89,> 10 µM,–
"SNU-C5 (large intestine, adherent)",0.984,> 1 µM,0.935,> 10.2 µM,0.898,> 20 µM,–,0.965,> 10 µM,0.696,0.236 µM,0.977,> 20 µM,0.986,> 10 µM,0.866,> 5.12 µM,0.955,> 10 µM,–
"TE-4 (oesophagus, adherent)",0.985,> 1 µM,0.805,5.13 µM,0.8,9.61 µM,–,0.975,> 10 µM,0.318,0.0194 µM,0.986,> 20 µM,0.836,6.57 µM,0.985,> 5.12 µM,0.986,> 10 µM,–
"UWB1.289 (ovary, adherent)",0.976,> 1 µM,0.967,> 10.2 µM,0.64,3.69 µM,–,0.976,> 10 µM,0.963,> 1 µM,0.94,> 20 µM,0.961,> 10 µM,0.898,> 5.12 µM,0.946,> 10 µM,–
"YH-13 (glioma, adherent)",0.985,> 1 µM,0.858,9.23 µM,0.653,3.41 µM,–,0.971,> 10 µM,0.5,0.0626 µM,0.878,> 20 µM,0.918,> 10 µM,0.986,> 5.12 µM,0.95,> 10 µM,–
